Experimental data as given in publication PMC4336329 (PLoS ONE, 2015).
Out of some 310,000 compounds screened, about 2,200 (0.71%) showed an effect of 50% or more. Effects have a minus sign here. The list shows a part of the results.

Molecular target: human ether-à-go-go-related gene (hERG) potassium channel (human, UniProt Q12809)
Assay: primary screen, population patch clamp on CHO cells stably expressing hERG

human ether-à-go-go-related gene (hERG) potassium channel, sequence (Q12809 whole entry, looked up): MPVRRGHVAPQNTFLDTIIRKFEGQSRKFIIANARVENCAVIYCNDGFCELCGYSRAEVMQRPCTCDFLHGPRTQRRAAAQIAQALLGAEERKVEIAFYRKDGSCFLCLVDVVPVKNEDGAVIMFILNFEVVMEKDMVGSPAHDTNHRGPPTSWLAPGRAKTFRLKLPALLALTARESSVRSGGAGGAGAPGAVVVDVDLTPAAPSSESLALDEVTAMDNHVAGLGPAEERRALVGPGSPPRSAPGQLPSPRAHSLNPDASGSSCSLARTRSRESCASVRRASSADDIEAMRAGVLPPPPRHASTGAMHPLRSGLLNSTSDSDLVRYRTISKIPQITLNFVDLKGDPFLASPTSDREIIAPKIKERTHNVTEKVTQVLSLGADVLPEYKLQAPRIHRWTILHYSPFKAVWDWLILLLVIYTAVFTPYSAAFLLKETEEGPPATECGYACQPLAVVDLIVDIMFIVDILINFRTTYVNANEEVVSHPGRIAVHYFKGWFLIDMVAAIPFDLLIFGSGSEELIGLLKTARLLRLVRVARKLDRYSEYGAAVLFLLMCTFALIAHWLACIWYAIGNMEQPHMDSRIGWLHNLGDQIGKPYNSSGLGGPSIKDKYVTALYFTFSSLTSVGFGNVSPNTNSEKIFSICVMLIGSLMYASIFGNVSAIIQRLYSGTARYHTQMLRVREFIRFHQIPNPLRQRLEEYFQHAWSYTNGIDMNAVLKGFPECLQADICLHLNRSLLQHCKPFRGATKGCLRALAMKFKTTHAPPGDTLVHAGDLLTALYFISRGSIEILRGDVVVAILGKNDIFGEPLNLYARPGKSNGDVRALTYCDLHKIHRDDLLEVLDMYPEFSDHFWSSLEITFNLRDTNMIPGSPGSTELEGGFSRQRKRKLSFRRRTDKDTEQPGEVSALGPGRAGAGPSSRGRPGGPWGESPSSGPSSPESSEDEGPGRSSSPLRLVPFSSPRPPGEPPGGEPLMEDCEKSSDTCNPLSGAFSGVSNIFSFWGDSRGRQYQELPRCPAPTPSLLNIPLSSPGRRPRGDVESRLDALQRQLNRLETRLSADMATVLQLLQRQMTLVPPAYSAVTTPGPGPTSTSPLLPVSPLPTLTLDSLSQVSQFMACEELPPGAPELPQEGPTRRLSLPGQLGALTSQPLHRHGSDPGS

| Compound | hERG current change (%, negative = inhibition) at 1uM |
| --- | --- |
| Cc1ccc(/C=N/NC(=O)C(c2ccncc2)N2CCOCC2)cc1 (stereo not shown) | 19.6% |
| CC(NC(=O)OCc1ccccc1)C(=O)NCC1CCCO1 (stereo not shown) | 15.2% |
| CC(/C=C/c1ccccc1)=N\Nc1nc2c(c(=O)[nH]c(=O)n2C)n1CCO | 13.1% |
| CSCC(=O)N1CCc2ccc(NC(=O)c3ccccc3Cl)cc2C1 | 11.5% |
| CC1(C)Oc2ccc3ccc(=O)oc3c2C(/C=N/O)=C1Cl | 13.5% |
| CC(C)N(C(=O)Cn1cc(SCC(=O)N2CCCC2)c2ccccc21)C(C)C | -2.17% |
| CC(C)N(Cc1nc(-c2ccccc2)no1)C(=O)CN1C(=O)c2ccccc2C1=O | -9.32% |
| COc1ccc2c(c1)OC[C@H]1[C@H]2N2C(=O)CN(Cc3ccco3)C(=O)[C@@]2(C)[C@H]1c1ccccc1 | 21.2% |
| CC(=O)N(CCCCN1C(=O)c2ccccc2C1=O)c1ccc(C)cc1 | -4.21% |
| Oc1cccc(/C=N/N2CCN(C3c4ccccc4-c4ccccc43)CC2)c1 | 14.6% |
| O=C(CSc1ccc2nnc(-c3ccc(F)cc3)n2n1)N1CCCc2ccccc21 | 1.84% |
| CCn1cc(/C=C(\NC(=O)c2ccccc2F)C(=O)NCCCN2CCOCC2)c2ccccc21 | 1.87% |
| CCN(CC)S(=O)(=O)c1cc(NC(=O)C(C)N(C)CC(=O)Nc2c(C)cccc2C)ccc1C (stereo not shown) | 3.31% |
| CC(NS(=O)(=O)c1ccc(OCC(=O)NCc2cccnc2)cc1)c1ccccc1 (stereo not shown) | 10.6% |
| C#CCOCCOCCOCCNc1nc(N2CCN(C(=O)[C@H](CCC(=O)O)n3cc(C(N)Cc4ccc(O)cc4)nn3)CC2)nc(N2CCN(C(=O)[C@H](Cc3cc4ccccc4[nH]3)n3cc(C(N)CC(C)C)nn3)CC2)n1.Cl (stereo partly shown) | 7.46% |
| O=C(NC1CCCCCC1)c1ccc(Cl)c(S(=O)(=O)N2CCOCC2)c1 | -7.39% |
| COc1cccc(CC(NC(C)=O)C(=O)NC2CCN(c3ncccc3[N+](=O)[O-])CC2)c1 (stereo not shown) | 18.6% |
| COC(=O)c1ccc(COC(=O)c2cc3ccccc3oc2=O)cc1 | 16.1% |
| COc1ccc(C2(c3ccc(OC)cc3)NC(=O)N(CC(=O)Nc3ccccc3C(F)(F)F)C2=O)cc1 | 15.7% |
| Cc1cc(C)cc(C(=O)Nc2ccncc2)c1 | 14.2% |
| CC(C)OCCCNC(=O)c1c(N)n(/N=C/c2ccccn2)c2nc3ccccc3nc12 | 9.45% |
| COc1cccc(CNC(=O)C2CC(=O)N(C3CCCCC3)C2)c1 (stereo not shown) | 17% |

| Compound | hERG current change (%, negative = inhibition) at 1uM |
| --- | --- |
| COc1ccc(OCC(=O)Nc2ccc(Cl)cc2)cc1 | 10.5% |
| O=C(/C=C/c1ccc(S(=O)(=O)N2CCOCC2)cc1)OCC(=O)c1ccc([N+](=O)[O-])cc1 | -3.49% |
| Cc1ccc(N2C(=O)N(CC(=O)N(C)Cc3ccccc3)C(=O)C2C)cc1 (stereo not shown) | -16.6% |
| CCOC(=O)N1CCC(NC(=O)c2ccc(CS(=O)(=O)c3ccc(OC)cc3)o2)CC1 | -5.9% |
| CCOc1ccc(C(=O)NCC(=O)OCC(=O)NC2CCCC2)cc1 | 10.5% |
| CCc1ccc(/C(C)=N/NC(=O)c2ccccn2)cc1 | 13.5% |
| CCN(CC)CCn1c2c(c(SCC(=O)Nc3nc4ccc(C)cc4s3)nc1=O)CCC2 | -4.65% |
| CCOc1ccc2nc(N=Nc3c(O)[nH]c(=O)[nH]c3=O)sc2c1 | 7.48% |
| O=C(O)C(=O)O.c1ccc(CC2CCN(Cc3ccccn3)CC2)cc1 | 8.66% |
| COCCNC(=O)c1cc(-c2cccs2)on1 | 7.96% |
| COC(=O)c1cccc(NC(=O)C2COc3ccccc3O2)c1C (stereo not shown) | 7.5% |
| Cc1cc(OCC(=O)NC(C)(C)C)ccc1Cl | 10% |
| O=C1c2ccccc2NC2CCCCCN12 (stereo not shown) | 9.7% |
| Cc1ccc2nc(SCC(=O)N/N=C/c3ccc(C(=O)O)cc3)cc(C)c2c1 | 2.7% |
| c1ccc2c(Cn3ccnc3)cccc2c1 | 13.3% |
| COCCCNc1ncnc2sc3c(c12)CCC(C)C3 (stereo not shown) | 7.13% |
| CCNS(=O)(=O)c1ccc(NC(=O)c2cccnc2)cc1 | 12.5% |
| Cc1nc2ccccc2n1CC(=O)N/N=C\C=C\c1ccccc1 | 12.1% |
| CCc1[nH]nc(C(=O)NC2CCCN(Cc3ccccc3F)C2)c1C (stereo not shown) | 7.17% |
| COc1cccc(OC)c1C(=O)Nc1ccnn1C | -75.9% |
| Cc1ccc(NC(=O)N(CCCN2CCOCC2)Cc2cccs2)cc1C | -6.45% |
| CNC(=O)COC(=O)c1cc(SC)ccc1Cl | 13.9% |

| Compound | hERG current change (%, negative = inhibition) at 1uM |
| --- | --- |
| Cc1c(Cl)cccc1NC(=O)c1cc(-c2ccco2)on1 | 9.28% |
| COc1ccc2[nH]c(C)c(CCNC(=S)Nc3ccc(C)cc3)c2c1 | 9.92% |
| Cn1c(NCCCO)nc2c(c1=O)C1(CCCCC1)Cc1ccccc1-2 | -3.36% |
| O=C(NCC(c1cccnc1)N1CCN(c2ccc(F)cc2)CC1)c1ccc(F)cc1 (stereo not shown) | -15.4% |
| CC(=O)Nc1cc(Cl)ccc1OS(=O)(=O)c1ccc(C)cc1 | 6.92% |
| CCCCNCc1cccn1-c1ccccc1.O=C(O)C(=O)O | 14.1% |
| S=C(NCCc1ccccc1)N1CCN(C(c2ccccc2)c2ccccc2)CC1 | 2.21% |
| CN(C)c1cc(-c2ccc([N+](=O)[O-])cc2)oc(=O)c1Cl | 2.91% |
| O=C(Nc1ccc(Nc2ccccc2)cc1)Nc1ccccc1Cl | 7.45% |
| COc1cccc(CN2CCN(c3ncccn3)CC2)c1OC | 10% |
| COc1ccc(NS(=O)(=O)c2cc(C)ccc2NC(=O)c2cc(C)oc2C)cc1 | 6.11% |
| COc1cccc(CC(=O)OCC(=O)NNC(=O)c2ccc([N+](=O)[O-])cc2)c1 | 1.8% |
| CCc1cccc(NC(=O)CCC(=O)O)c1 | -4.13% |
| CSc1cccc(NC(=S)N(Cc2ccccc2)Cc2ccccn2)c1 | 3.13% |
| O=c1c2c3c(sc2ncn1/N=C/c1ccncc1)CCCC3 | 18.4% |
| Cc1cc(C(=O)CCl)c(C)n1CCc1ccc(Cl)cc1 | 21.6% |
| COc1ccc(N(CC(=O)N2CCN(Cc3ccc4c(c3)OCO4)CC2)S(C)(=O)=O)cc1OC | 17.6% |
| CCC(c1nnnn1Cc1ccccc1)N(Cc1cc2cc(OC)ccc2[nH]c1=O)CC1CCCO1 (stereo not shown) | 4.7% |
| COC(=O)C1=C(C)NC(=O)NC1c1ccccc1 (stereo not shown) | 5.58% |
| CCOC(=O)CNC(=O)c1ccccc1Br | 7.12% |
| Cc1ccccc1C(=O)Nc1ccc(C(=O)N/N=C/c2ccc(O)c(Br)c2)cc1 | 4.7% |
| Cn1c(N)c(Sc2ccc([N+](=O)[O-])cc2)c(=O)n(C)c1=O | 5.01% |

| Compound | hERG current change (%, negative = inhibition) at 1uM |
| --- | --- |
| CC(C)(C)CC(=O)NCc1ccc(F)cc1 | 7.52% |
| CC(=O)N(c1c(C)n(C)n(-c2ccccc2)c1=O)C1(C(=O)NC2CCCC2)CCCCC1 | 0.507% |
| CCOC(=O)CSc1nc2ccccc2c(=O)n1CCCCCC(=O)NCc1ccco1 | -5.3% |
| CC[C@@H]1[C@H]2CCCC(=O)N3CC[C@@H](C[C@@H]1OC(=O)NCc1ccccc1)[C@@H]23 | 5.5% |
| Cc1ccc(C(=O)NC2CCCCCC2)cc1N1CCCC1=O | 5.47% |
| COc1ccc(C2SCC(=O)N2c2ccc(C)cc2)cc1 (stereo not shown) | 15.3% |
| O=c1ccc(-c2ccccc2)no1 | 10.7% |
| O=C(Nc1ccc(Nc2ccccc2)cc1)c1ccc(Cl)cc1Cl | 7.23% |
| COc1ccc(OCC(=O)N/N=C/C2CC=CCC2)cc1 (stereo not shown) | 7.11% |
| Cc1ccc(N2C(=O)C3CCC(C)(C2=O)C3(C)C)cc1C (stereo not shown) | 11.2% |
| O=C(N/N=C/c1ccc2c(c1)OCO2)C(=O)Nc1ccccc1 | 10.4% |
| NS(=O)(=O)c1cc2c(cc1C(F)(F)F)NCNS2(=O)=O | -6.31% |
| COc1ccc(C(=O)OC(C)C(=O)NC(C)CCc2ccccc2)cc1OC (stereo not shown) | 3.33% |
| c1ccc2c(c1)OCC(c1nnc3sc(-c4cnccn4)nn13)O2 (stereo not shown) | -3.17% |
| CC(CCn1cccn1)NC(=O)CCc1nnc(CCc2ccccc2)o1 (stereo not shown) | -2.24% |
| CC(C)CC(=O)Nc1ccccc1-c1nnn(CC(=O)N2CCOCC2)n1 | -0.477% |
| Cn1cc(CCNC(=O)CCc2nnc(CCCCc3ccccc3)o2)cn1 | 7.57% |
| CCN(CC)CCNC(=O)c1ccc(NC(=O)c2cc(S(=O)(=O)N3CCCCC3)ccc2C)cc1 | 18.1% |
| CC(=NCCc1ccccc1)c1c(O)n(C)c(=O)n(C)c1=O | 8.91% |
| O=C(NCC1CCCN(C(=O)NCc2ccccc2)C1)c1ccc2c(c1)OCO2 (stereo not shown) | 4.39% |
| CC(=O)COc1ncnc2c(Cl)cc(Cl)cc12 | 18% |
| CCN(Cc1ccccc1)C(=O)c1ccc(CNS(=O)(=O)c2ccc(C)cc2)cc1 | 3.34% |
